From PMC13181001 (Communications Medicine, 2026)

Tests used:
[1] = test system: A-431 (wild-type) xenograft; type: in vivo, mouse; conditions: once-daily oral; Fig. 5i
PC-9 (ex19del) xenograft = type: in vivo, mouse; conditions: once-daily oral; Fig. 5f
[2] = test system: NCI-H1975 (L858R/T790M) xenograft; conditions: once-daily oral; Fig. 5h
[3] = test system: HCC827 (ex19del) xenograft; type: in vivo, mouse; conditions: once-daily oral; Fig. 5e

Row | Compound | antitumor effect (tumor volume) [1] | antitumor effect (tumor volume) (PC-9 (ex19del) xenograft) | antitumor effect (tumor volume) [2] | antitumor effect (tumor volume) [3]
1 | C#Cc1cccc(Nc2ncnc3cc(OCCOC)c(OCCOC)cc23)c1 [Erlotinib, erlotinib] | statistically significant antitumor effect |  |  | 
2 | C=CC(=O)Nc1cc(Nc2nccc(-c3cn(C)c4ccccc34)n2)c(OC)cc1N(C)CCN(C)C [Osimertinib, osimertinib] | statistically significant antitumor effect |  |  | 
3 | C#Cc1c(-c2cnc3ccccc3c2)c2c(N)ncnc2n1C12CCC(NC(=O)c3cnc(C)cn3)(CC1)C2 [TAS3351] |  | statistically significant antitumor effect | statistically significant antitumor effect | statistically significant antitumor effect
